US20080044436A1 (published 2008)

Target: T1, Sp1 transcription factor (UniProt P08047 1-785, limits assumed)
T1 construct: In the pull-down it was 35S-labelled and synthesized in vitro in rabbit reticulocyte lysate; In the reporter assays it was expressed in HeLa cells from pcDNA3-Sp1; also called 35S-[Sp1]; 35-[S]-Sp1
Test: GST pull-down on glutathione-Sepharose with 35S-labelled Sp1

T1 sequence (P08047 whole entry): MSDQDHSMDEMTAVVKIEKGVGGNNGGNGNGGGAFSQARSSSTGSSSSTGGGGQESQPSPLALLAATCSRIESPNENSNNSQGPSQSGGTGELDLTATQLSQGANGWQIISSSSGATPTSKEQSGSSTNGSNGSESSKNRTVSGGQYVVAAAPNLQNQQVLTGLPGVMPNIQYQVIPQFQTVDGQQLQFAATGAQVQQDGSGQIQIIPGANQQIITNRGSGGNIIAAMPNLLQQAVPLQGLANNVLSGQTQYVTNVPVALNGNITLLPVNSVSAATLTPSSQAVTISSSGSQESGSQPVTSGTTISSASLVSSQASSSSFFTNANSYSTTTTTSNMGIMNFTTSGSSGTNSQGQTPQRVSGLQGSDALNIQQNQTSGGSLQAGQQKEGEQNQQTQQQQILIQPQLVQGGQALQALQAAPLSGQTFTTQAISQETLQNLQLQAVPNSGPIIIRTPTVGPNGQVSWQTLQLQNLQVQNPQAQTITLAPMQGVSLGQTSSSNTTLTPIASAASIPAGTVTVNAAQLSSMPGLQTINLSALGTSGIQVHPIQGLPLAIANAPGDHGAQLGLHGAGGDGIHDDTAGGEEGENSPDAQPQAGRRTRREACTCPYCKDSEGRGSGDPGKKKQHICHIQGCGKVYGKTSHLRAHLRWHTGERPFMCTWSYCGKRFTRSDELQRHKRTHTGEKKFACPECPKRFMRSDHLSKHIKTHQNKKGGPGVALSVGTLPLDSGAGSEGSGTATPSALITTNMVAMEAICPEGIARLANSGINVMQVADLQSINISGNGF

binding result: no binding
B1: GST protein (other)
chain: not shown
notes: Negative control in the pull-down assays; also called GST alone
